Results as given in patent US7517667B2, “Methods for promoting, inhibiting and detecting toxin entry into cells” (Boston Medical Center Corporation, priority 2003, dated 2009).

Biological target: T1, β-COP (Homo sapiens, UniProt P53618)
T1 construct: endogenous in cells; host or cells: Hut102/6TG cell lysate (β-COP); the bait GST-DT140-271 was made in E. coli BL-21(DE-3)
T1 sequence (P53618 1-953): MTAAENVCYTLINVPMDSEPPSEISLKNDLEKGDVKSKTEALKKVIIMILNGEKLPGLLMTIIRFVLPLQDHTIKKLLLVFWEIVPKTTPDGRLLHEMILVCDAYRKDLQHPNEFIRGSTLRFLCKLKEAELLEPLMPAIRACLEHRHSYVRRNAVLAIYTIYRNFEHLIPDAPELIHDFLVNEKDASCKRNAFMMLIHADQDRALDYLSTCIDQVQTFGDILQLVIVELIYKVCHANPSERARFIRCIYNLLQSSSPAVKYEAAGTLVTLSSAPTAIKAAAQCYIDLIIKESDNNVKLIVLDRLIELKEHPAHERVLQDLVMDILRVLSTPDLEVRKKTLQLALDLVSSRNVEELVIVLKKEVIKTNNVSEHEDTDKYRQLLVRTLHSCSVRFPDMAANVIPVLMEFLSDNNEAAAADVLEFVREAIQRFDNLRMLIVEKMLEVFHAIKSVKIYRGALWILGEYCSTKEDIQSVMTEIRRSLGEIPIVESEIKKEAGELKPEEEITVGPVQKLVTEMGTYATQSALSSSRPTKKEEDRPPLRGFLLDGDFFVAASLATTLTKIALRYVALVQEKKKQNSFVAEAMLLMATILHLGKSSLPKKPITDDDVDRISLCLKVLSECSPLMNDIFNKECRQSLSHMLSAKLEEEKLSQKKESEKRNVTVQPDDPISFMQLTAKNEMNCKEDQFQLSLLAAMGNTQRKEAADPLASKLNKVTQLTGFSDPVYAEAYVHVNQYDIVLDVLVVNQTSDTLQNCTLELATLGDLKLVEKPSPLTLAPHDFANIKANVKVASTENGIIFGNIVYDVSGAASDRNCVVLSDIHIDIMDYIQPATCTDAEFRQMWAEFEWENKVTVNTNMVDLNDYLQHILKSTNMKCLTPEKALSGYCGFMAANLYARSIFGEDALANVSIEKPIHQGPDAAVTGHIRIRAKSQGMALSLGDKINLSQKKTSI

Sequence | inhibition of the interaction between β-COP and GST-DT140-271 (pull down, anti-β-COP immunoblot)
AENSDKHRIMQVFHRTLNQ [2,335 molecular weight peptide used as negative control in GST-DT140-271 pull down experiments] | failed to block the pull down of β-COP
RDKTKTKIESLKEHGPIKNS [T1 peptide] | inhibits this interaction in a dose dependent manner
